{
  "source": "PubChem BioAssay AID2675",
  "about": "(National Center for Advancing Translational Sciences (NCATS), 2010)",
  "note": "Hit rate of the full screen: of about 280,000 compounds, about 100 (0.036%) were called active. Inconclusive results, whose numbers are uncertain, are shown with a selection of clear calls. Calls come from the whole dose curve; as a rule, active = well fitted inhibition curve with a large enough effect in the signal ratio, with a control signal flat (not every such curve was filed as active); inconclusive = small, poorly fitted or top-dose-only effect, or effect the other way, or a change in a side signal; inactive = no such curve, though single readings can be large or run the other way; the % refers to the signal ratio. Potencies beside an inconclusive call are fits to weak or partial responses and may not hold up. “Side channel” marks fits to a control or component signal instead of the main read-out. % is set by controls: 0 for no effect and ±100 for the full control effect; potency is the fitted concentration of half-maximal effect; tags give direction and shape of the fitted curve or compound fluorescence and quenching.",
  "data": [
    {"target": "Muscleblind-like protein 1 (Homo sapiens) (UniProt Q9NR56)", "sequence (Q9NR56 whole entry, looked up)": "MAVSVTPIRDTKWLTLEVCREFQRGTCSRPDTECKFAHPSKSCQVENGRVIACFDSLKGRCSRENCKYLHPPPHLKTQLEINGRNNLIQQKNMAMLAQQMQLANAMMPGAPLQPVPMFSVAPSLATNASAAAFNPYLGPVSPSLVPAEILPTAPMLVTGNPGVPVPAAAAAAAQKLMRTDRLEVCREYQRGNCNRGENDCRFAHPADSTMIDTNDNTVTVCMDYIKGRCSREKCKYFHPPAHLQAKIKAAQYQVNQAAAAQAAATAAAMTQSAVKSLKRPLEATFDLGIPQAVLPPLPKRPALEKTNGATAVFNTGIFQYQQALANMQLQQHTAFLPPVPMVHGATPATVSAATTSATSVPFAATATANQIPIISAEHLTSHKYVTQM", "assay": "qHTS Assay for Inhibitors of MBNL1-poly(CUG) RNA binding", "conditions": "TR-FRET MBNL1-His/biotin-(CUG)12 binding, 665/545 ratio; activity change, negative = inhibition: at 57.5 µM (top of the series)", "procedure,_shortened": "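His-tagged MBNL1 binding to biotinylated (CUG)12 RNA was measured by TR-FRET using terbium anti-His antibody (0.055 ng/ul final) and streptavidin-XL665 (5 nM final). Compounds were titrated 92 nM to 58 uM; 60 min at room temperature.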", "values": [
      {"smiles": "O=C(N/N=C/c1ccc(Cl)c([N+](=O)[O-])c1)c1ccc2nc[nH]c2c1", "Potency": "inconclusive: 14.1 µM [quencher, side channel, partial curve]"},
      {"smiles": "Cc1nc2ccccc2nc(=O)c1NNc1ccc([N+](=O)[O-])cc1", "Potency": "inconclusive: 12.6 µM [quencher, side channel, partial curve]"},
      {"smiles": "CCCCOc1ccc(-c2c(C(=O)Nc3ccccc3)c(C)[nH]c(=S)c2C#N)cc1", "Potency": "inconclusive: 12.6 µM [fluorescent, side channel, partial curve]"},
      {"smiles": "CC(=O)c1sc(-c2ccccc2)cc1N", "Potency": "inconclusive: 28.2 µM [quencher, side channel, partial curve]"},
      {"smiles": "O=C(Nc1nc(-c2cccc([N+](=O)[O-])c2)cs1)c1cccc([N+](=O)[O-])c1C(=O)O", "Potency": "inconclusive: 11.2 µM [quencher, partial curve]"},
      {"smiles": "COc1cc(C(=O)N/N=C/C2CC=CCC2)cc(OC)c1OC", "note": "(stereo not given)", "Potency": "inconclusive: 0.178 µM [fluorescent, side channel, full curve]"},
      {"smiles": "CC(=O)/C(N=Nc1ccc(C(=O)O)cc1[N+](=O)[O-])=C(\\C)O", "Potency": "inconclusive: 14.1 µM [quencher, side channel, partial curve]"},
      {"smiles": "Cc1ccc(N=Nc2c(=O)[nH]n3c(C)cc(C)nc23)cc1", "Potency": "inconclusive: 12.6 µM [quencher, side channel, partial curve]"},
      {"smiles": "Cc1ccc(NC(=O)COC(=O)c2ccc([N+](=O)[O-])s2)c(C)c1", "Potency": "inconclusive: 7.08 µM [quencher, side channel, partial curve]"},
      {"smiles": "CCN(CC(=O)NCc1ccc(F)cc1)C(=O)/C=C/c1ccco1", "Potency": "inactive"},
      {"smiles": "CCOC(=O)CCCc1sc(N)nc1-c1[nH]c(=O)[nH]c1C", "Potency": "inconclusive: 17.8 µM [quencher, side channel, partial curve]"},
      {"smiles": "CCn1c2ccccc2c2cc(NC(=O)CSc3nnnn3-c3ccccc3)ccc21", "Potency": "inconclusive: 10 µM [fluorescent, side channel, partial curve]"},
      {"smiles": "COc1ccc(Nc2ccc(N3C(=O)CC(C)C3=O)cc2[N+](=O)[O-])cc1OC", "note": "(stereo not given)", "Potency": "inconclusive: 3.98 µM [quencher, side channel, full curve]"},
      {"smiles": "Cc1cc(N2CCN(C)CC2)n2cc(-c3ccc(F)cc3)nc2n1", "Potency": "inactive"},
      {"smiles": "COCCN1C=C2C(=O)C(C)(OC(=O)CCC(=O)OC)C(=O)C=C2C=C1C1CC1", "note": "(stereo not given)", "Potency": "inconclusive: 28.2 µM [quencher, side channel, single point]"},
      {"smiles": "Cc1ccc(OCC(=O)Nc2cccc(S(=O)(=O)N3CCOCC3)c2)c([N+](=O)[O-])n1", "Potency": "inconclusive: 17.8 µM [quencher, side channel, partial curve]"},
      {"smiles": "Cc1cc2ccccc2nc1SCC(=O)NC1CCCC1", "Potency": "inactive"},
      {"smiles": "Cc1ccc2nc(NCCCN3CCOCC3)c(C=NCCCN3CCOCC3)c(=O)n2c1", "Potency": "inconclusive: 17.8 µM [quencher, partial curve]"},
      {"smiles": "Cc1c(C(=O)NN)[nH]c2ccc([N+](=O)[O-])cc12", "Potency": "inconclusive: 20 µM [quencher, side channel, single point]"},
      {"smiles": "O=C(Nc1ccc(-c2noc(-c3ccccc3F)n2)cc1)c1cccs1", "Potency": "inconclusive: 0.355 µM [fluorescent, side channel, partial curve]"},
      {"smiles": "COc1cccc(C2(c3cccc(OC)c3)CC2C(=O)Nc2ccccc2Cl)c1", "note": "(stereo not given)", "Potency": "inconclusive: 31.6 µM [fluorescent, side channel, partial curve]"},
      {"smiles": "CC(C)CCn1c(O)c(N=NC(=O)c2ccco2)c2ccccc21", "Potency": "inconclusive: 3.55 µM [quencher, side channel, full curve, poor fit]"},
      {"smiles": "COc1ccc(Cn2c(CO)cnc2SCC(=O)Nc2cccc(NC(C)=O)c2)cc1", "Potency": "inactive"},
      {"smiles": "N#CCCN1CCN(S(=O)(=O)c2ccc(S(=O)(=O)N3CCCC3)cc2)CC1", "Potency": "inconclusive: 7.08 µM [quencher, side channel, single point]"},
      {"smiles": "CCOC(=O)CNS(=O)(=O)c1ccc2c3c(cccc13)C(=O)N2CC", "Potency": "inconclusive: 7.94 µM [quencher, side channel, partial curve]"},
      {"smiles": "Cc1ccc(OCC(=O)NCc2ccc3c(c2)OCO3)c([N+](=O)[O-])n1", "Potency": "inconclusive: 15.8 µM [quencher, side channel, partial curve]"},
      {"smiles": "CNC(=O)/C(C#N)=C/c1c(N2CCN(C)CC2)nc2c(C)cccn2c1=O", "Potency": "inconclusive: 31.6 µM [quencher, side channel, single point]"},
      {"smiles": "NS(=O)(=O)c1ccc2c(c1)C1C=CCC1C(C1CC=CCC1)N2", "note": "(stereo not given)", "Potency": "inconclusive: 39.8 µM [quencher, side channel, single point]"},
      {"smiles": "CCOC(=O)c1c(N)sc(=S)c2c1CCC2", "Potency": "inconclusive: 28.2 µM [quencher, side channel, partial curve]"},
      {"smiles": "COCCCNC(=S)NNC(=O)c1ccoc1C", "Potency": "inconclusive: 0.398 µM [fluorescent, side channel, partial curve, poor fit]"},
      {"smiles": "CCc1ccc(NC(=O)C(=O)NNC(=O)c2ccc(OC)cc2)cc1", "Potency": "inactive"},
      {"smiles": "O=[N+]([O-])c1ccc(N2CCN(c3cccc(Cl)c3)CC2)cn1", "Potency": "inconclusive: 2.82 µM [quencher, side channel, full curve, poor fit]"},
      {"smiles": "COc1ccc([C@]23Cc4cc(OC)c(OC)cc4C(O2)C2=C(CCCC2=O)O3)cc1", "activity change, negative = inhibition": "inactive: 4.32% [at 11.5 µM]"},
      {"smiles": "COC(=O)c1ccc2nccnc2c1", "Potency": "inconclusive: 11.2 µM [quencher, side channel, partial curve]"},
      {"smiles": "COc1cc(/C=N/n2cnnc2)ccc1OCc1ccccc1", "Potency": "inconclusive: 7.94 µM [quencher, side channel, partial curve]"},
      {"smiles": "CCOC(=O)CC(=O)CSc1nc(-c2cccnc2)ccc1C#N", "Potency": "inconclusive: 22.4 µM [quencher, side channel, partial curve]"},
      {"smiles": "COc1ccc(C(CNC(=O)c2cccc(N(C)C)c2)N2CCCC2)cc1", "note": "(stereo not given)", "Potency": "inconclusive: 39.8 µM [fluorescent, side channel, single point]"},
      {"smiles": "COc1c(-c2ccc(O)c(O)c2)oc2cc(O)cc(O)c2c1=O", "Potency": "inconclusive: 39.8 µM [quencher, side channel, single point]"},
      {"smiles": "Cc1ccc(/C=C2/SC(=S)N(CCC(=O)N3CCN(C)CC3)C2=O)cc1", "Potency": "inconclusive: 2 µM [quencher, side channel, full curve]"},
      {"smiles": "CCOC(=O)c1ccc(S(=O)(=O)N2CC(=O)Nc3ccccc32)cc1", "Potency": "inconclusive: 20 µM [quencher, side channel, partial curve]"},
      {"smiles": "COc1ccc(N(C(=O)c2ccncc2)S(=O)(=O)c2cccc([N+](=O)[O-])c2)cc1", "Potency": "inconclusive: 12.6 µM [quencher, side channel, partial curve]"},
      {"smiles": "O=C(Nc1ccc(C(=O)Oc2ccccc2)c(O)c1)c1ccco1", "Potency": "inactive"},
      {"smiles": "O=C(Nc1cccc(-c2ccc(N3CCCCC3)nn2)c1)C(F)(F)F", "Potency": "inconclusive: 6.31 µM [quencher, side channel, partial curve]"},
      {"smiles": "Cc1ccc(-n2[nH]c(C)c(/C=N/N3C(=O)c4cccc5cccc(c45)C3=O)c2=O)cc1", "Potency": "inconclusive: 4.47 µM [quencher, side channel, full curve]"},
      {"smiles": "CCCN1CCN(C(c2cc3cc4c(cc3[nH]c2=O)OCO4)c2nnnn2C(C)(C)C)CC1", "note": "(stereo not given)", "Potency": "inactive"},
      {"smiles": "O=C1CCC(CCC(=O)N2CCCC(C(=O)c3ccc4c5c(cccc35)CC4)C2)=NN1", "note": "(stereo not given)", "Potency": "inconclusive: 31.6 µM [quencher, side channel, partial curve]"},
      {"smiles": "O=C(NC(=S)Nc1cnc2ccccc2c1)c1ccccc1", "Potency": "inactive"},
      {"smiles": "Cc1cc(NC(=O)Nc2cccc([N+](=O)[O-])c2)no1", "Potency": "inconclusive: 15.8 µM [quencher, side channel, partial curve]"},
      {"smiles": "O=C(N/N=C(\\CC(=O)c1cccs1)C(F)(F)F)c1ccncc1", "Potency": "inconclusive: 25.1 µM [quencher, side channel, partial curve]"},
      {"smiles": "COc1ccc(/C=C2/SC(=S)N(CC(=O)O)C2=O)cc1OCc1ccc(Cl)cc1", "Potency": "inconclusive: 35.5 µM [quencher, side channel, single point]"},
      {"smiles": "CN(O)/C=c1/ccc2c(n1)C(=O)C=CC=2", "Potency": "inconclusive: 25.1 µM [quencher, side channel, partial curve]"},
      {"smiles": "C=CCn1c(=O)n(CCC#N)c(=O)n(CCC#N)c1=O", "Potency": "inactive"},
      {"smiles": "CC(CCc1ccc(O)cc1)NCCC(c1ccccc1)c1ccccc1", "note": "(stereo not given)", "Potency": "inactive"},
      {"smiles": "Cc1cn(C2CCC(CO)O2)c(=O)[nH]c1=O", "note": "(stereo not given)", "Potency": "inactive"},
      {"smiles": "CC(=O)N/N=C/c1cc2c(cc1[N+](=O)[O-])OCO2", "Potency": "inconclusive: 15.8 µM [quencher, side channel, partial curve]"},
      {"smiles": "COc1ccc(NC2CCCN(C(=O)CCN3CCCC3=O)C2)cc1", "note": "(stereo not given)", "Potency": "inactive"},
      {"smiles": "N#Cc1cc([N+](=O)[O-])ccc1NCCN1CCOCC1", "Potency": "inconclusive: 11.2 µM [quencher, side channel, partial curve]"},
      {"smiles": "O=C(N/N=C/c1ccccc1Br)c1ccc(CSc2cccc3cccnc23)cc1", "Potency": "inactive"},
      {"smiles": "CN1CCN(/N=C/c2ccc(C#N)cc2)CC1", "Potency": "inconclusive: 15.8 µM [quencher, side channel, partial curve]"},
      {"smiles": "O=C(c1cccs1)N1CCN(C(=O)C2CCCO2)CC1", "note": "(stereo not given)", "Potency": "inconclusive: 8.91 µM [quencher, side channel, single point]"}
    ]}
  ]
}
